# Experimental data published in ChEMBL document CHEMBL4888484, “Replenishing the malaria drug discovery pipeline: Screening and hit evaluation of the MMV Hit Generation Library 1 (HGL1) against asexual blood stage Plasmodium falciparum ,using a nano luciferase reporter read-out” (2022).
# About 540 (0.36%) of roughly 150,000 compounds showed an effect of 50% or more. This is one part of the list.
# Tested on: Plasmodium falciparum
# Experiment: Primary screen in NF54 nanoGlo assay, in single point, at 2uM, 72h; a lower Z score goes with more inhibition
# Type: functional, Erythrocyte
# Conditions: timepoint 72 hour
Compound,% Inhibition,Z score
CCOC(=O)C1CCN(Cc2cncc(-c3cc(F)ccc3OC)c2)CC1,-4%,0.39
CCn1ncnc1CN1CCc2[nH]nc(-c3ccc(C(C)(C)C)cc3)c2C1,-22%,2.8
CC1CC(CS(=O)(=O)N(C)[C@@H](C)c2ccncc2)C1 (some centres undefined),1%,-0.27
CCCC[C@H](CC)C(=O)NCCc1ccc(OC)c(OC)c1,2%,-0.22
CCCCc1nn(CC(=O)NCc2ccc3nsnc3c2)c(=O)n1CC,-7%,1.31
COc1ccccc1CCC(=O)N1CCc2nn(C)c(=O)n2CC1,-14%,1.78
CCOCCC(=O)NCC1(N2CCOCC2)CCCCCC1,-10%,1.92
CCCn1nc(C(=O)N2CCCCC2)c2c1CC[C@H](N1CCN(CC)CC1)C2,-12%,1.36
C=CCC[C@@H](CN(C)CCN(C)C)Oc1ncc(C)c(N(C)C)n1,-8%,1.59
Cn1ncc(COc2ccc(CO)nc2)c1C(F)(F)F,-1%,0.11
C[C@H]1[C@@H](NC(=O)NC(c2ccncc2)C2CC2)CCS1(=O)=O (some centres undefined),-14%,1.84
COC(=O)[C@@H]1CCCN1C(=O)CC1(c2ccccc2)CC(=O)N(Cc2cccnc2)C1=O (some centres undefined),-8%,1.14
CC1(C)CCc2sc(N3CCOCC3)nc21,5%,-0.54
Cc1c(C(=O)N2CCOCC2)c(S(=O)(=O)N2CCc3ccccc32)c(C)n1C,-11%,2.08
Cc1cccc(Cl)c1OCCN1C[C@H](O)[C@@H](N2CCCC2)C1,-3%,0.42
CC1(C)CC(NC(=O)C2CCCCC2)CC(C)(C)N1,-4%,0.38
CCCCn1c(N)c(N(Cc2ccco2)C(=O)COc2ccc(CC)cc2)c(=O)[nH]c1=O,-21%,3.34
CC[C@@H]1CCO[C@@H]1C(=O)N[C@@H](CC(=O)O)c1ccc2ccccc2c1,2%,-0.37
COc1cc(C(=O)N2CCC(CC(=O)NCc3ccc(C)cc3)CC2)cc(OC)c1OC,2%,-0.3
COc1ccc(C(=O)N2C[C@@H]3OCC(=O)N(CC4CC4)[C@@H]3C2)cc1,-11%,1.41
Cc1nn(C(C)C)cc1C(=O)N1CCC2(CN(C)C2)C1,-4%,0.76

Compound,% Inhibition,Z score
Cc1ccc(CC(=O)N2C[C@@H](COc3ccncc3)[C@H](C(N)=O)C2)cc1,-3%,0.43
O=C(C#Cc1ccc2c(c1)OCO2)NCCNc1ccccc1,1%,-0.22
O=C(CN1CCN(c2ccc(F)cc2)C1=O)NC[C@H]1Cc2ccccc2CO1,1%,-0.15
CCc1nc(C)cc(N2CCC3(NC(=O)C4(F)CCCC4)CCCC23)n1 (centres undefined),16%,-2.02
Cn1nc(C2CCCCC2)cc1NC(=O)CCc1cncc(F)c1,-8%,1.7
CS(=O)(=O)NCCc1ncnn1Cc1c(F)cccc1Cl,-2%,0.47
O=S(=O)(c1cccs1)N(CCn1ccc(C(F)(F)F)n1)C1CCCC1,19%,-2.39
O=C(CCN1CCC[C@H]1c1nc(C2CC2)no1)Nc1ccc2c(c1)CCC2,-14%,1.34
COCC1(NC(=O)[C@]2(c3ccc(OC)cc3)CC2(C)C)CCCC1,-4%,0.5
Cc1nc2c([nH]1)CN(C(=O)NC1CC(C)(C)CC(C)(C)C1)CC2,-11%,1.51
Cc1ccc(-c2cc(NS(=O)(=O)c3ccc(F)cc3)n([C@H]3CCS(=O)(=O)C3)n2)cc1,-1%,0.13
COc1ccc2oc(CNc3nnc(C(C)(C)C)o3)nc2c1,-8%,0.93
Cc1ccc2c(c1)OCCN2S(=O)(=O)c1ccc2c(c1)C(=O)NCC2,7%,-0.75
Cc1cnc(C)c(N2CCC3(CCC(=O)N([C@H]4CCN(C)C4)C3)CC2)n1,-12%,2.29
CCC(C)(C)C(=O)N1CCC[C@@H]1CCc1ncc(C)n1C(C)C,36%,-4.8
Cc1cnc(CN2C[C@]3(CCCN(C(=O)c4nc(C)c[nH]4)C3)CCC2=O)cn1,-13%,2.47
Cn1c(=O)c2c(-c3ccccc3F)n3c(c2n(C)c1=O)[C@@H](c1cccc(Cl)c1)Nc1ccccc1-3,14%,-1.78
Cc1ccc(CC2(N[C@@H](C)CN(C)CCO)CC2)cc1,2%,-0.39
Cc1ccc(C(=O)N(C(C)C)C(C)C)o1,-29%,3.42
CC(C)c1ncc(C(=O)NCc2cccnc2-n2cnc3ccccc32)c(=O)[nH]1,-8%,1.66
CC(C)n1cccc1C(=O)N1CCC[C@H]1C(=O)N1CCCCC1,-12%,2.31

Compound,% Inhibition,Z score
CCOC1CC(CCNC(=O)Nc2nnc(-c3ccsc3)s2)C1 (centres undefined),7%,-0.74
COC1CCN(C(=O)N[C@H](c2ccccc2)c2cc3ccccc3o2)CC1,-4%,0.65
Cc1noc(C)c1CN[C@@H](C)c1nc(C2CCCC2)no1,-4%,0.6
Cc1ccc([C@H](CNC(=O)c2cnc(-c3cccnc3)nc2O)N(C)C)o1,-9%,0.84
C[C@]1(O)CCCN(C(=O)c2nc(=O)[nH]c3ccccc23)CC1,5%,-1.09
C[C@@H]1Oc2ccc(NC(=O)c3c(F)cccc3F)cc2CN(CCc2ccc(F)cc2)C1=O,-8%,0.9
Cc1cc(COC(=O)c2sc(C)nc2C)nc(C)n1,-5%,0.59
COc1ccc(OC)c(-c2n[nH]cc2CN2CC(F)(F)C[C@H]2CN2CCOCC2)c1,-7%,1.17
Cc1n[nH]c(=O)c2cc(S(=O)(=O)NCc3ccco3)cn12,-5%,0.69
O=C(N[C@H]1C[C@@](CO)(c2ccccc2)C1)c1nnc(-c2ccccc2)o1,1%,-0.08
Cn1nccc1CCNC(=O)N1CC(C)(C)OC(C)(C)C1,4%,-0.49
CCNc1nc(C(=O)N2CCOCC23CCC3)cs1,9%,-1.46
CS(=O)(=O)N1CCC[C@H](CNC(=O)c2cccc(-c3cccc(N)n3)c2)C1,-8%,1.51
O=C(NCc1cccnc1)Nc1ccc(-c2nccn2C(F)F)cc1,-3%,0.52
COc1ccc(-c2cn3c(-c4ccccc4)c(-c4ccccc4)nc3n2-c2cccc(O)c2)cc1,-4%,0.66
COc1ccc(NC(=O)c2cccc(N(C)S(C)(=O)=O)c2C)cc1,-10%,1.42
O=C(c1c(F)cccc1Cl)N1CCC[C@H](Oc2ccncn2)C1,-1%,0.2
COCc1cc(C(=O)NC2C(C)(C)C(NC(=O)c3cc(COC)on3)C2(C)C)no1 (centres undefined),-9%,1.25
CCc1ccc(NC(=O)Cc2n[nH]c(=O)c3cc(-c4ccc(F)cc4)nn23)cc1,-17%,2.3
CC(C)(C)c1noc(CNC(=O)c2cccc(-c3ccc4c(c3)OCC4)c2)n1,-2%,0.35
Cc1nn(CC2CC2)c(=O)n1-c1ccc(C(C)C)cc1,-4%,0.52

Compound,% Inhibition,Z score
Nc1ncc(C(=O)N2CCC3(CC2)[C@H](O)C[C@@H]3O)c(C(F)(F)F)n1,-9%,1.16
C[C@@H](CN(CCC(=O)N1CCNCC1)C(=O)c1ccc(C(F)(F)F)cc1)c1ccccc1,1%,-0.17
CCC(CC)CS(=O)(=O)NC(=O)Cc1ccc(OC)cc1,-9%,1.22
Cc1nnc(N2CC3CCC(O)C3C2)o1 (centres undefined),0%,-0.02
CC1CCCCC1N(C)C(=O)CN(C)CCn1cnnc1 (centres undefined),2%,-0.21
COC(=O)[C@@H]1[C@H](C)Cc2ccccc2N1Cc1nnc(C)o1,5%,-0.55
Cc1ccccc1[C@]1(O)CCN(C(=O)c2nccn2C)C1,-4%,0.56
O=C(NCCc1cccs1)c1cc2n(n1)CCCO2,-18%,2.75
COC(=O)C1(NCc2cncc(C)c2)CCCCCC1,3%,-0.32
COc1ccccc1[C@H]1CN(Cc2ccc(N(C)C)nc2)C[C@@H]1C(=O)O,-12%,2.28
CC[C@H](NC(=O)c1ccc2c(c1)CCCC2)c1cnn(C)c1,-9%,1.25
CS(=O)(=O)[C@H]1CCCN(c2ccc(C#N)cc2Br)C1,-3%,0.37
CC(C)c1cc([C@@H]2CCCN2C(=O)c2nn(C)cc2Cl)on1,-16%,2.18
Cc1ccc([C@H](C(=O)Nc2ccc(C(C)C)cc2)N(Cc2ccco2)C(=O)Cc2c[nH]c3ccccc23)cc1,8%,-1.2
O=C1CC[C@H](C(=O)N2CC=C(c3cccc4ccccc34)C2)N1,-4%,0.5
CCC(C)(C)c1ccc(OCCCCNC[C@H](C)O)c(Cl)c1,-11%,1.23
O=C(N[C@H]1CCCc2ccccc21)c1cc(O)ncn1,-2%,0.41
CCc1ncc(NC(=O)N2CCCS(=O)(=O)C[C@H]2C2CC2)cn1,-13%,1.35
CN(C)C[C@H]1CN(C(=O)c2cccc(C(F)(F)F)n2)CCO1,-11%,1.03
